# Assay results: PMC4336329 (PLoS ONE, 2015)
# In all, about 310,000 compounds went through this assay and about 14,000 (4.5%) showed an effect of 50% or more. The effect is printed as a negative number. This is one part of the list.
# Target: human ether-à-go-go-related gene (hERG) potassium channel (human, UniProt Q12809)
# Experiment: primary screen, population patch clamp on CHO cells stably expressing hERG
# 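Further: peak tail current of the secondary pulse compared with the same well before compound.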
# human ether-à-go-go-related gene (hERG) potassium channel, sequence (Q12809 whole entry, looked up): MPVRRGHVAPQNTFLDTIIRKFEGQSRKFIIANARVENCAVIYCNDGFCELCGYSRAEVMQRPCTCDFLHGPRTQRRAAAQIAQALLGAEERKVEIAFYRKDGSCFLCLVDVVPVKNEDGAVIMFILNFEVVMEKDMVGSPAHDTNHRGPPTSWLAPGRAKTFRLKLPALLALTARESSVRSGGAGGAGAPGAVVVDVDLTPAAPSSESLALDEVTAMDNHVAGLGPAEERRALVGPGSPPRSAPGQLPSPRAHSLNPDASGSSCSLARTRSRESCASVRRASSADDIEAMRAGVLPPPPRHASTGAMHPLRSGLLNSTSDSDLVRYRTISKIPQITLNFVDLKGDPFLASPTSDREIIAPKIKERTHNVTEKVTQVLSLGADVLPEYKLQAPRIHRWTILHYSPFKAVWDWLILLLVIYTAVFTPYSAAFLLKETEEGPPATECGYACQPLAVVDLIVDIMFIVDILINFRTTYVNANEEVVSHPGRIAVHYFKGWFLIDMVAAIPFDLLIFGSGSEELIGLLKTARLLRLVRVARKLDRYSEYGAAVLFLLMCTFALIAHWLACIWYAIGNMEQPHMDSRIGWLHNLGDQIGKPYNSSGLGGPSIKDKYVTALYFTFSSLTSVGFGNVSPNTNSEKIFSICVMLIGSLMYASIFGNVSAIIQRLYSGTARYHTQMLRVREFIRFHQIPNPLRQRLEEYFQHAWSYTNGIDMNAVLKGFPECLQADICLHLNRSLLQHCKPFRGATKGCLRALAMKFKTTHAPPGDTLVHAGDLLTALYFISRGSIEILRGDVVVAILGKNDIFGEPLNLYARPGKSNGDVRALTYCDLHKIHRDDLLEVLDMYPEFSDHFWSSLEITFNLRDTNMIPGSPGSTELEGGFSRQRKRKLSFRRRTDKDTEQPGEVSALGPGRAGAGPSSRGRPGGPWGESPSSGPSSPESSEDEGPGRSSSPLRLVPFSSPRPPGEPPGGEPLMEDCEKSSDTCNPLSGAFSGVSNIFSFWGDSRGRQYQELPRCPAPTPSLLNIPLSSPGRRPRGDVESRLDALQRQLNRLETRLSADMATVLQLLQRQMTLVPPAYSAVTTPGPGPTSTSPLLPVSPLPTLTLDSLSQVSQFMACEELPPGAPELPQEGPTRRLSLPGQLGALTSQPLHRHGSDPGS
row,Compound,"hERG current change (%, negative = inhibition) at 10uM [%]"
1,CCC[C@H]1COCCS(=O)(=O)N1Cc1ccccc1,4.86
2,O=C(CN1CCN(c2ccccn2)CC1)Nc1ccc(OCc2ccccc2)cc1,-45.3
3,O=C(Nc1c(-c2cccs2)nc2ccccn12)c1ccc2ccccc2c1,29.7
4,N#Cc1ccccc1CN1C(=O)NC2(CCCCCC2)C1=O,-3.88
5,Fc1ccc(NC(=S)N2CCSC2c2cccs2)cc1 (stereo not shown),4.73
6,COc1ccc(CCN2C(=O)CC(Cc3ccc(C)cc3)C2=O)cc1OC (stereo not shown),-26.2
7,CC(C)(C)c1cc(CN2CCCC(O)C2)c(O)c(C(C)(C)C)c1 (stereo not shown),-13.9
8,Cc1cc(C)n(-c2nc3c(c(=O)n(C)c(=O)n3C)n2C)n1,0.426
9,COc1ccc(Oc2ccccc2C=O)cc1,3.42
10,Cc1nn2c(N)c(-c3ccccc3)cnc2c1-c1ccc(Cl)cc1,16.7
11,CC1(C)CC(=O)N(c2ccccc2)C1(C)O (stereo not shown),-7.84
12,COc1ccc(C(=O)N[C@H](C(=O)NCC2CCCCC2)C(C)C)cc1,8.74
13,O=C(NNc1cccc(Cl)n1)Nc1ccccc1F,-0.675
14,Cc1cccc(N2CCN(C(=O)c3ccc4nc(N5CCCCC5)sc4c3)CC2)c1C,2.19
15,CCN(C#N)c1nc(NC(C)C)nc(NC(C)(C)C)n1,-2.59
16,CCOc1ccc(NC(=O)CC2S/C(=N/N=C3CCCCCC3)NC2=O)cc1 (stereo not shown),10.3
17,Cc1ccc(NS(=O)(=O)c2cccs2)nc1,6.58
18,Cc1c(OCC(=O)NCC2CCC(C(=O)O)CC2)ccc2c(-c3ccccc3)cc(=O)oc12 (stereo not shown),17.2
19,COc1ccc(N(CCC(=O)Nc2ccccc2F)S(=O)(=O)c2ccc(C)cc2C)cc1,-16.7
20,CC1=NN(c2cccc(Cl)c2)C(=O)C12CC(C)=C(C)CS2 (stereo not shown),-6.05

row,Compound,"hERG current change (%, negative = inhibition) at 10uM [%]"
1,COC(=O)c1sc(N2C(=O)C(O)=C(C(=O)c3ccc(C)o3)C2c2ccc([N+](=O)[O-])cc2)nc1C (stereo not shown),7.29
2,CC(C)Sc1nnc(SCC(=O)NCCCN2CCCC2=O)s1,3.95
3,C=CCC1NS(=O)(=O)OC(CCc2ccccc2)C1O (stereo not shown),0.294
4,O=C1CC(N2CCN(C3CCc4ccccc4C3)CC2)C(=O)N1c1ccccc1 (stereo not shown),-64.6
5,COc1ccc(C(C#N)c2nc3ccccc3nc2Cl)cc1 (stereo not shown),-4.33
6,COc1cc(CN2CCC(C(=O)NCCC(C)C)CC2)ccc1OCc1ccccc1.O=C(O)C(=O)O,-67.8
7,O=C1c2cccc([N+](=O)[O-])c2C(=O)N1c1c[nH]c(=O)[nH]c1=O,19.7
8,CS(=O)(=O)N1CCN(C(=O)Nc2ccccc2)CC1,21.2
9,CCc1ccc(-c2cc3c(=O)n(CC(=O)NCc4ccccc4F)ncn3n2)cc1,16.2
10,Cc1ccc(C(=O)Nc2ccc(Cl)cc2C(F)(F)F)c(Cl)c1,-2.36
11,COc1cccc(C2=NOC(C(=O)Nc3ccc4c(c3)OCO4)C2)c1OC (stereo not shown),-7.23
12,COC(=O)c1c(C)c(C)nc(N)c1C#N,10.2
13,CC(C)(Oc1ccc(Cl)cc1)C(=O)NCc1n[nH]c(=O)c2ccccc12,-31.7
14,O=C(NC(NC(=S)Nc1cccc(C(=O)O)c1)C(Cl)(Cl)Cl)OCc1ccccc1 (stereo not shown),1.69
15,CCCCN(CC)S(=O)(=O)c1ccc(C(=O)Nc2nnc(COC)o2)cc1,1.47
16,C#CCn1c(=NC(=O)c2ccc(Br)s2)sc2cc(NC(C)=O)ccc21,10.6
17,CCOC(=O)Cc1csc(SCC(=O)NC2CCCC(C)C2C)n1 (stereo not shown),-12.6
18,CCNc1nc(NCC)n2c(SCC(=O)Nc3ccc(F)cc3)nnc2n1,-14.6
19,COc1ccc(-c2cc(C(=O)N/N=C/c3cccnc3)c3ccccc3n2)cc1,-7.06
20,COc1cccc(-n2cc(C(=O)NC(C)C)c3ccccc3c2=O)c1,-8.68

row,Compound,"hERG current change (%, negative = inhibition) at 10uM [%]"
1,Cc1ccc(C2=CSC3=NS(=O)(=O)CCN23)cc1,1.05
2,Cn1nnnc1SCC(=O)Nc1ccccc1-c1ccccc1,-2.87
3,Cc1noc(C)c1C(=O)NC(C)c1ccc(Cl)cc1Cl (stereo not shown),-8.56
4,CCOC(=O)CNC(=O)CNC(=O)c1ccc(OC(C)C)cc1,13
5,CC(=O)Nn1cc2c(=O)n(C)c(=O)n(C)c2c1,7.68
6,COC(=O)c1ccccc1NC(=O)n1cc(C)cn1,-5.58
7,CN(CC(=O)N1CCCCC1)S(=O)(=O)c1cccc2nsnc12,0.854
8,O=c1cc(-c2ccccc2Cl)oc2c(NS(=O)(=O)c3cccs3)ccc(O)c12,-23.4
9,N#CC1=C(N)OC2=C(CCc3ccccc32)C1c1ccccc1Cl (stereo not shown),26.3
10,O=C(O)C1=C[C@H](c2ccc(Br)cc2)C[C@H](OCCCCO)O1,5.9
11,COc1ccc(-n2c(C)nnc2SCC(=O)NC2CC2)cc1,2.42
12,Cc1nn(-c2ccccc2Cl)c2sc(C(=O)Nc3nnc(C4CC4)s3)cc12,17.7
13,Cc1ccccc1OCC(=O)NNC(=O)CSc1nc(N)cc(N)n1,7.88
14,O=c1c2cc(Br)cc(Br)c2oc2nc3n(c(=O)c12)CCCS3,2.96
15,Cc1cc(C)cc(NC(=O)CSc2nnc(-c3ccc(S(=O)(=O)N4CCCC4)cc3)o2)c1,-1.48
16,CCOC(=O)CNC(=O)CSc1nc(-c2ccc(C)cc2)ns1,4.63
17,O=C(Nc1ccc(Br)cc1)Nc1ccccc1Cl,19.7
18,C/C(CC(=O)Nc1cccc(F)c1)=N\NC(=O)c1ccncc1,18.6
